Laboratory results from ChEMBL document CHEMBL4888484, “Replenishing the malaria drug discovery pipeline: Screening and hit evaluation of the MMV Hit Generation Library 1 (HGL1) against asexual blood stage Plasmodium falciparum ,using a nano luciferase reporter read-out” (2022).
Hit rate of the full screen: of about 150,000 compounds, about 540 (0.36%) showed an effect of 50% or more. The list shows a part of the results.

What follows are compounds tested on Plasmodium falciparum (assay: Primary screen in NF54 nanoGlo assay, in single point, at 2uM, 72h; a lower Z score goes with more inhibition). Conditions: timepoint 72 hour.
Type: functional, Erythrocyte
`O=S(=O)(N1CCOCC1)N(C[C@H]1CCOC1)C1CC1` was tested, and the “% Inhibition” value was -14% and the Z score was 1.2. For `CCc1ccc(-c2cc(C(=O)N3C[C@H]4CCCN[C@H]4C3)[nH]n2)cc1`, the “% Inhibition” value was -15% and the Z score was 2.56. `COCCNC(=O)N[C@@H](C)Cc1cccs1` was tested, and the “% Inhibition” value was -6% and the Z score was 0.91. With `O=C(CCCn1cccn1)N[C@H]1CCC[C@H]1Cc1ccc(F)cc1` the “% Inhibition” value was -6% and the Z score was 1.04. For `CN(C(=O)Cn1cccc(S(=O)(=O)N2CCCCCC2)c1=O)C1CCCCC1`, the “% Inhibition” value was -4% and the Z score was 0.69. With `CCCc1cc(C(=O)N2CCN(c3ccc(N(C)C)cc3)CC2)[nH]n1` the “% Inhibition” value was 0% and the Z score was 0.06. With `COc1ccc(-c2cc(C(=O)N3CCN(C(c4ccccc4)c4ccccc4)CC3)c3cc(Br)ccc3n2)cc1` the “% Inhibition” value was -6% and the Z score was 0.81. `Cc1ccc(C(C(=O)Nc2ccc(C(C)C)cc2)N(Cc2ccco2)C(=O)CC2NC(=O)NC2=O)cc1` (centres undefined) was tested, and the “% Inhibition” value was 25% and the Z score was -3.82. For `OC1Cc2ccccc2C1NCc1cccc2[nH]ccc12` (centres undefined), the “% Inhibition” value was -1% and the Z score was 0.17. With `O=C1CC[C@H](C(=O)Nc2cccc(-c3ccc4c(c3)CCO4)c2)N1` the “% Inhibition” value was -1% and the Z score was 0.11. In the case of `CC[C@@]1(C)COCCN1Cc1nnn(C)n1`, the “% Inhibition” value is reported as -8% and the Z score is reported as 1.18. For `Cc1cccnc1CCNC(=O)c1nccn1C`, the “% Inhibition” value was -5% and the Z score was 1.06. With `COC(=O)C[C@H](NC(=O)c1cc(F)cc(F)c1)C1CC1` the “% Inhibition” value was 30% and the Z score was -3.35. For `C=CCCS(=O)(=O)N1CCNC[C@@H]1C`, the “% Inhibition” value was -9% and the Z score was 1.16. With `COc1cccc(CN[C@@]2(CO)CCOC2)c1F` the “% Inhibition” value was -15% and the Z score was 1.26. With `Cc1ccc(C(=O)NCCN2C(=O)CCC2=O)s1` the “% Inhibition” value was -12% and the Z score was 0.99. `O=C1Nc2cc(C(=O)N3CCN(c4ccccn4)CC3)ccc2Nc2ccccc21` was tested, and the “% Inhibition” value was -8% and the Z score was 1.48. With `Cn1c(-c2ccncc2)nc2cc(C(=O)N[C@H](c3ccco3)C(F)(F)F)cc(NC(=O)C3CCC3)c21` the “% Inhibition” value was -15% and the Z score was 1.72. With `Cc1[nH]nc(CCC(=O)N2CCN(Cc3ccc4c(c3)OCO4)CC2)c1C` the “% Inhibition” value was -13% and the Z score was 1.96. In the case of `CCOc1nccn2c(CNC(=O)c3cccnc3)nnc12`, the “% Inhibition” value is reported as 11% and the Z score is reported as -1.41. `O=C1CC[C@@]2(CCCN(c3nc(CO)cs3)C2)CN1CCO` was tested, and the “% Inhibition” value was 2% and the Z score was -0.37. For `Cc1nc(N2CC[C@@H](O)C2)ncc1-c1ccc2c(c1)C(C)(C)CO2`, the “% Inhibition” value was -3% and the Z score was 0.44. With `CC(C)CCNC(=O)c1[nH]cnc1C(=O)NC(c1ccccc1)c1ccccc1` the “% Inhibition” value was 12% and the Z score was -1.44. In the case of `Cc1ccc(-c2cc3c4nn(CC(=O)Nc5ccc(F)cc5F)c(=O)n4ccn3n2)cc1C`, the “% Inhibition” value is reported as 5% and the Z score is reported as -0.66. In the case of `Cc1cccc(NC(=O)C(Oc2ccccc2)C(=O)Nc2cccc(C)c2)c1`, the “% Inhibition” value is reported as -14% and the Z score is reported as 2.72. `Fc1cc(Nc2ncnc3sccc23)ccc1N1CCOCC1` was tested, and the “% Inhibition” value was -11% and the Z score was 1.35. `COc1cc(NC(=O)N(C)Cc2cccc(F)c2)ncn1` was tested, and the “% Inhibition” value was 6% and the Z score was -0.52. `O=C(c1ccc(C(F)(F)F)nc1)N1C2CCC1CC(n1cncn1)C2` (centres undefined) was tested, and the “% Inhibition” value was -6% and the Z score was 1.14. In the case of `CCCCn1nc(C)nc1-c1c(C)nn(C)c1C`, the “% Inhibition” value is reported as 6% and the Z score is reported as -0.78. `O=C(Nc1ccc(F)c(NC(=O)C2CCCCC2)c1)c1ccc(F)cc1F` was tested, and the “% Inhibition” value was -10% and the Z score was 1.29. For `CCN(C)C(=O)C1C2C(=O)N(CCc3ccc(C)cc3)C[C@@]23C=C[C@@H]1O3` (some centres undefined), the “% Inhibition” value was 0% and the Z score was -0.02. For `Cc1ccc(N2CCC(N[C@H]3CCOC[C@@H]3OCC(=O)O)CC2)cc1`, the “% Inhibition” value was -11% and the Z score was 1.31. In the case of `COc1cccc(-n2c(=O)n(Cc3ccccc3)c(=O)c3c2ncn3Cc2cccc(Cl)c2)c1`, the “% Inhibition” value is reported as -8% and the Z score is reported as 0.74. In the case of `CC(=O)N1CCCN(C(=O)c2cc3ccc(C(C)(C)C)cc3[nH]2)CC1`, the “% Inhibition” value is reported as -8% and the Z score is reported as 1.06. In the case of `Cc1noc(C)c1Cn1ccn2nccc2c1=O`, the “% Inhibition” value is reported as 4% and the Z score is reported as -0.46. With `COCCN1CCC[C@H](C(=O)N2CCN(c3ccccc3O)CC2)C1` the “% Inhibition” value was -15% and the Z score was 1.37. With `CC(C)COc1ccc(CC(=O)NS(=O)(=O)C(C)C)cc1` the “% Inhibition” value was 10% and the Z score was -1.94. `CCCc1cc(C(=O)NC[C@H]2CCCN(C)C2)ccn1` was tested, and the “% Inhibition” value was -3% and the Z score was 0.49. In the case of `Clc1ccc(COc2ccc(Cl)cc2CNCCCn2ccnc2)c(Cl)c1`, the “% Inhibition” value is reported as 94% and the Z score is reported as -11.1. For `N#Cc1ccc(N[C@@H](CN)C2CCCCC2)cc1`, the “% Inhibition” value was 1% and the Z score was -0.1. `CCCn1nc(C)c(C(=O)NCc2ccc(C(C)=O)c(C)n2)c1C` was tested, and the “% Inhibition” value was -7% and the Z score was 0.74. `Cc1cc(-c2nc(C3(C(=O)OC(C)(C)C)CCC3)no2)n[nH]1` was tested, and the “% Inhibition” value was 11% and the Z score was -1.91. `COC(=O)c1cc(O)cc(C(=O)N[C@H]2CCC(=O)N(C)C2)c1` was tested, and the “% Inhibition” value was -14% and the Z score was 2.04. For `COc1ccccc1N(CCC(N)=O)C(=O)CN1CCC(NC(=O)c2ccc(F)cc2)CC1`, the “% Inhibition” value was -9% and the Z score was 0.9. With `O=C(c1ccc(CN2C(=O)CCn3nccc32)cc1)N1CCN(c2cccc(Cl)c2)CC1` the “% Inhibition” value was 13% and the Z score was -1.57. In the case of `CC1CCN(S(=O)(=O)c2ccc3c(ccc(=O)n3CC(=O)Nc3cccc(F)c3)c2)CC1`, the “% Inhibition” value is reported as -10% and the Z score is reported as 1.3. With `Brc1cc2c(cc1Cn1nnc(C3CC3)n1)OCCO2` the “% Inhibition” value was 7% and the Z score was -0.9. In the case of `CC(C)NC(=O)c1cc(Cl)c(O)c(Cl)c1`, the “% Inhibition” value is reported as -3% and the Z score is reported as 0.23. For `C[C@H](NC(=O)CCCc1ccc(O)c(F)c1)c1ccc(N2CCN(C)CC2)cc1`, the “% Inhibition” value was -12% and the Z score was 2.27. For `O=C1C[C@@H](C(=O)Nc2ccc3c(c2)OCO3)c2c(nc(N3CCC(Cc4ccccc4)CC3)[nH]c2=O)N1`, the “% Inhibition” value was -3% and the Z score was 0.54. `Cc1ccc(CCn2c(C)c(C)c(S(=O)(=O)c3ccc(Cl)cc3)c2N)cc1` was tested, and the “% Inhibition” value was -10% and the Z score was 1.27. `COc1cc(-c2cc(CN(Cc3ccc(F)cc3)C(=O)c3ccccc3)no2)cc(OC)c1OC` was tested, and the “% Inhibition” value was -5% and the Z score was 0.66. In the case of `CC(=O)Nc1ccc(-c2c3c(C)nn(-c4ccccc4)c3nc3[nH]c(=O)[nH]c(=O)c23)cc1`, the “% Inhibition” value is reported as 8% and the Z score is reported as -1.48. With `O=C1[C@@H]2CCCN2C(=O)N1CC1(O)CCCCC1` the “% Inhibition” value was 5% and the Z score was -0.69. In the case of `Cn1c(C2CCC2)nc2cc(C(=O)NCCc3c[nH]c4ccccc34)cc(NC(=O)[C@@H]3CCCO3)c21`, the “% Inhibition” value is reported as 14% and the Z score is reported as -1.93. In the case of `C[C@H](NS(C)(=O)=O)C(=O)N1CCC(c2nc3c(s2)CCCC3)CC1`, the “% Inhibition” value is reported as -8% and the Z score is reported as 1.52. With `Cc1ccc(-c2nc(N(C)C[C@@]3(C)CCN(C)C3)ncc2-c2cncnc2)cc1` the “% Inhibition” value was -14% and the Z score was 1.89. With `CN(CCc1ccccc1)c1cnn(CCn2cccn2)c(=O)c1` the “% Inhibition” value was -15% and the Z score was 2.83. In the case of `COc1ccc(CCN2C(=O)N[C@@H](CC(=O)NCCn3cnc4ccccc43)C2=O)cc1`, the “% Inhibition” value is reported as 1% and the Z score is reported as -0.07. In the case of `C[C@@H](CCc1ccccc1)N1CCC(=O)N(Cc2ccncc2)CC1`, the “% Inhibition” value is reported as -2% and the Z score is reported as 0.25. With `Cn1cccc1CCC(=O)N1C[C@H]2C[C@H](O)[C@@H](O)C[C@H]2C1` the “% Inhibition” value was -12% and the Z score was 1.99. For `CCCc1cc(C(=O)N2CC[C@@]3(CCCN(Cc4cccc(OC)c4OC)C3)C2)n(C)n1`, the “% Inhibition” value was 7% and the Z score was -1.07. With `Cc1nccc(C(=O)N(C)C2CCCCCCC2)n1` the “% Inhibition” value was -7% and the Z score was 1.31. For `Cc1cccnc1[C@@H](NC(=O)c1ccn(C)c1C)C1CC1`, the “% Inhibition” value was -4% and the Z score was 0.5. With `CNS(=O)(=O)c1ccc2c(c1)N(CC(=O)c1cc(C)[nH]c1C)CC2` the “% Inhibition” value was -5% and the Z score was 0.69. In the case of `COCCNC(=O)c1ccc(Cl)s1`, the “% Inhibition” value is reported as -15% and the Z score is reported as 2.06. For `Cc1cc(Cn2ccnc2-c2ccc3c(c2)CC(C)(C)O3)no1`, the “% Inhibition” value was -8% and the Z score was 1.49. With `O=C1CCCCCN1CCc1nc([C@H]2CCOC2)no1` the “% Inhibition” value was 18% and the Z score was -2.38. In the case of `Cc1cc(NS(=O)(=O)CCC2Cc3ccccc3C2)ccc1O`, the “% Inhibition” value is reported as -4% and the Z score is reported as 0.74. In the case of `COc1ccc(C(=O)N2CCC3(CC2)C[C@@H](CCOc2cccnc2)CCO3)cc1`, the “% Inhibition” value is reported as 5% and the Z score is reported as -0.91. For `Cc1cc(NC(=O)c2cccnc2)cc(-c2nc3ncccc3o2)c1O`, the “% Inhibition” value was -15% and the Z score was 2.23. In the case of `CCn1nc(CN2CCC(NC(=O)c3ccc(F)cn3)CC2)c2c1CCOC2`, the “% Inhibition” value is reported as -3% and the Z score is reported as 0.57. With `Cc1ccc(S(=O)(=O)N2CCC(c3nc4cc(C(=O)NCc5cccs5)ccc4n3C3CCCCC3)CC2)cc1` the “% Inhibition” value was 17% and the Z score was -2.83. For `CC(C)(Oc1ccc2c(c1)CCC2)C(=O)NCCc1nnc(N)s1`, the “% Inhibition” value was -12% and the Z score was 1.15. In the case of `Cn1cccc1C(=O)NCc1nc(C2CCOCC2)no1`, the “% Inhibition” value is reported as -11% and the Z score is reported as 1.47. With `OC1(Cc2ccccn2)CCN(Cc2ncnn2CCF)CC1` the “% Inhibition” value was -2% and the Z score was 0.33. For `CCn1c(Cn2nc(C)c(C)c(C#N)c2=O)nc2cc(F)ccc21`, the “% Inhibition” value was -23% and the Z score was 2.86. For `CC(c1nnc(-c2cccs2)o1)N1CCCCC1Cn1cncn1` (centres undefined), the “% Inhibition” value was -4% and the Z score was 0.4. `CC(C)(C)OC(=O)[C@@](C)(O)CNC(=O)c1cc(C#N)c[nH]1` was tested, and the “% Inhibition” value was 0% and the Z score was 0.09. `Fc1ccc(-c2ccc(N3CCCC3)nn2)c2ncccc12` was tested, and the “% Inhibition” value was 3% and the Z score was -0.4. For `Cc1cc(-c2cnn([C@@H]3CCCCO3)c2)ccn1`, the “% Inhibition” value was -3% and the Z score was 0.61. For `O=C(CS(=O)(=O)Cc1cc(Cl)c2c(c1)OCCCO2)NC1CCCCCC1`, the “% Inhibition” value was 35% and the Z score was -4.72.
